Experimental findings from paper PMC4336329 (PLoS ONE, 2015) are described below.

In all, about 310,000 compounds went through this assay and about 2,200 (0.71%) showed an effect of 50% or more. The effect is printed as a negative number. The list shows a part of the results.

The target of the assay is human ether-à-go-go-related gene (hERG) potassium channel (human, UniProt Q12809). In words: primary screen, population patch clamp on CHO cells stably expressing hERG.
human ether-à-go-go-related gene (hERG) potassium channel, sequence (Q12809 whole entry, looked up): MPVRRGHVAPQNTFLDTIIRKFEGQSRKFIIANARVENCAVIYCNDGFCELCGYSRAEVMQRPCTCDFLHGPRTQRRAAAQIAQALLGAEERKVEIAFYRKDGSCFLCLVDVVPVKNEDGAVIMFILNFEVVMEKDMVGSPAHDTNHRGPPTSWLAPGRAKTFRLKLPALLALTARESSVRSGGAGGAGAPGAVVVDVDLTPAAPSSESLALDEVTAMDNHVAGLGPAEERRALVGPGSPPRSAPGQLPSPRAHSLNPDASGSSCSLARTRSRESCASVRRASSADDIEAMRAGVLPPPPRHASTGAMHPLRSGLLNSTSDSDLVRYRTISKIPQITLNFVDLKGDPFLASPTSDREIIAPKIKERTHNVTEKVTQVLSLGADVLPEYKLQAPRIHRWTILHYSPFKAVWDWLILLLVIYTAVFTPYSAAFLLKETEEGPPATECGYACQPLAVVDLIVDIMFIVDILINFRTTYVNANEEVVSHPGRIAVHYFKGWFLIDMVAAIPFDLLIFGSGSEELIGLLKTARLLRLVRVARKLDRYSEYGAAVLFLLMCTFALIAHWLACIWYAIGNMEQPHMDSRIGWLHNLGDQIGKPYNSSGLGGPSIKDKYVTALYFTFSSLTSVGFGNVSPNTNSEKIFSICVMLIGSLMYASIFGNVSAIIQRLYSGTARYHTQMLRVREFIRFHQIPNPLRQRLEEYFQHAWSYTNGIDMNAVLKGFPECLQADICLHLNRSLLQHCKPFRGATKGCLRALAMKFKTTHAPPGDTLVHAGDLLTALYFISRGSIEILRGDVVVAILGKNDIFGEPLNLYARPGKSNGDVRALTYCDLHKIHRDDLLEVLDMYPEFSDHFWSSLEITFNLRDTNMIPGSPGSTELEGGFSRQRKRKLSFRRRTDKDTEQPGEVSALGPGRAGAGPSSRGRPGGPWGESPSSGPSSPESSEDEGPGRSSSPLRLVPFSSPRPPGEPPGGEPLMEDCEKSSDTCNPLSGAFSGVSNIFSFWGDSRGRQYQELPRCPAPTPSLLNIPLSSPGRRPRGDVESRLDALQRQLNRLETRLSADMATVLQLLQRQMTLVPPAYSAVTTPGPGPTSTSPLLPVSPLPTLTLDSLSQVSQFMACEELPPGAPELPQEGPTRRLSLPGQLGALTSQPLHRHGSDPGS
With `COc1cccc(C(=O)Nc2cccc3ccccc23)c1`, the “hERG current change (%, negative = inhibition) at 1uM” value is recorded as 17.3%.

With `Oc1ccccc1-c1cc(-c2ccccc2Cl)[nH]n1`, the “hERG current change (%, negative = inhibition) at 1uM” value amounted to 9.63%.

As for `CCOc1ccccc1NC(=O)CSc1nnc(-c2cccnc2)o1`, the “hERG current change (%, negative = inhibition) at 1uM” value is on record as -1.24%.

For the compound `CC/C(=N\NC(=S)NC(C)C)c1ccc(OC)c(OC)c1`, the “hERG current change (%, negative = inhibition) at 1uM” value is reported as 2.61%.

As for `COc1ccc(C(=O)Nc2cccc(C(C)=O)c2)cc1OC`, the “hERG current change (%, negative = inhibition) at 1uM” value was -3.86%.

Take `CC1Cc2ccccc2N1C(=O)CN1C(=O)NC(C)(c2ccc3c(c2)OCCO3)C1=O` (stereo not drawn): the “hERG current change (%, negative = inhibition) at 1uM” value is recorded as 15.9%.

As to `CC(C)C1C(c2ccccc2)NC(c2ccccc2)CC1(O)c1ccc(F)cc1.Cl` (stereo not drawn), the “hERG current change (%, negative = inhibition) at 1uM” value amounted to 10.7%.

Turning to `COc1cccc(CNc2nc3nc(C)c(Cl)c(C)n3n2)c1`, the “hERG current change (%, negative = inhibition) at 1uM” value is given as -20.3%.

On to `CC(=O)Nc1cc(OC(=O)c2ccco2)cc(OC(=O)c2ccco2)c1`, for which the “hERG current change (%, negative = inhibition) at 1uM” value turned out to be 5.22%.

Regarding `Cc1ccc2c(CN3CCCCC3C)cc(=O)oc2c1.Cl` (stereo not drawn), the “hERG current change (%, negative = inhibition) at 1uM” value is -10.8%.

Regarding `COc1ccccc1N(CC(=O)NCC1CCCO1)C(=O)CNS(=O)(=O)c1ccccc1` (stereo not drawn), the “hERG current change (%, negative = inhibition) at 1uM” value came out at 9.94%.

In the case of `O=C(c1cccs1)N1CC=C(c2ccccc2)CC1`, the “hERG current change (%, negative = inhibition) at 1uM” value was found to be 5.46%.

Turning to `COC(=O)c1nccnc1C(=O)Nc1ccccc1N1CCOCC1`, the “hERG current change (%, negative = inhibition) at 1uM” value amounted to 7.86%.

Regarding `COc1ccc(S(=O)(=O)N2CCCOC2CNC(=O)C(=O)NC2CCCC2)cc1` (stereo not drawn), the “hERG current change (%, negative = inhibition) at 1uM” value is given as 10.7%.

`COc1ccc(N2CCN(C(=O)CSc3nc(C)cs3)CC2)cc1`: the “hERG current change (%, negative = inhibition) at 1uM” value is 1.15%.

`COc1ccc(C(=O)/C=C/c2cccc(OCc3ccccc3)c2)cc1CSCC(=O)O`: the “hERG current change (%, negative = inhibition) at 1uM” value was determined as 5.42%.

As to `CCOc1ncccc1C(=O)NCC(c1ccccc1)N(C)C` (stereo not drawn), the “hERG current change (%, negative = inhibition) at 1uM” value is 10.1%.

`O=C(NNC(=O)c1ccccc1O)c1cc2ccccc2o1`: the “hERG current change (%, negative = inhibition) at 1uM” value was 7.58%.

For `CCn1c(=NC(=O)CS(=O)(=O)c2ccc(C)cc2)sc2cccc(OC)c21`, the “hERG current change (%, negative = inhibition) at 1uM” value is on record as 1.66%.

In the case of `Cc1ncsc1C(=O)NCc1ccc(N2CCCC2=O)cc1`, the “hERG current change (%, negative = inhibition) at 1uM” value is recorded as -0.752%.

On to `CS(=O)(=O)N1CCN(C(=S)NCc2ccc(F)cc2)CC1`, for which the “hERG current change (%, negative = inhibition) at 1uM” value is recorded as 15.6%.

Regarding `Cl.c1ccc(Cn2nnnc2C(c2cccs2)N2CCc3ccccc3C2)cc1` (stereo not drawn), the “hERG current change (%, negative = inhibition) at 1uM” value is recorded as 2.81%.

Consider `COC(=O)c1cccc(COC(=O)c2ccccc2NC(=O)c2ccco2)c1`, for which the “hERG current change (%, negative = inhibition) at 1uM” value came to 11.4%.

In the case of `CCCNC(C)(C)COC(=O)c1ccccc1.Cl`, the “hERG current change (%, negative = inhibition) at 1uM” value is reported as 13.1%.

In the case of `O=[N+]([O-])c1cc([N+](=O)[O-])c(Oc2c(F)cccc2F)cc1NN1CCCCC1`, the “hERG current change (%, negative = inhibition) at 1uM” value came to 16.1%.

As to `CN(CCC#N)C(=S)NC(=O)c1ccc(S(=O)(=O)N2CCOCC2)cc1`, the “hERG current change (%, negative = inhibition) at 1uM” value stood at 13%.

As for `COC(=O)N/N=C/c1cc(C)n(-c2ccccc2)c1C`, the “hERG current change (%, negative = inhibition) at 1uM” value was determined as 10.7%.

On to `O=C(c1cccc(F)c1)N1CCN(S(=O)(=O)c2ccccc2)CC1`, for which the “hERG current change (%, negative = inhibition) at 1uM” value is on record as -2.83%.

In the case of `COc1ccc(/C=C\C(=O)Oc2cccc(/C=N/NC(=O)Cc3ccc(OC)c(OC)c3)c2)cc1`, the “hERG current change (%, negative = inhibition) at 1uM” value is given as 12.2%.

With `O=C(Nc1ccc(C(=O)Oc2ccccc2)c(O)c1)c1ccco1`, the “hERG current change (%, negative = inhibition) at 1uM” value is given as 3.13%.

Regarding `O=C(NCCc1ccccc1)C(=O)N/N=C/c1ccc2c(c1)OCO2`, the “hERG current change (%, negative = inhibition) at 1uM” value is 3.69%.

For the compound `COc1ccc(CC(=O)Nc2cccc(S(=O)(=O)N3CCCC3)c2)cc1OC`, the “hERG current change (%, negative = inhibition) at 1uM” value was found to be 11%.

On to `CC(C)Oc1ccc(C2CC(=O)N(c3cccc(/C=C/C(=O)O)c3)C2=O)cc1` (stereo not drawn), for which the “hERG current change (%, negative = inhibition) at 1uM” value was found to be 15.2%.

With `Cc1cc(=O)[nH]c(N2CCCC2)n1`, the “hERG current change (%, negative = inhibition) at 1uM” value is listed as 14.3%.

On to `Cc1ccnc(NS(=O)(=O)c2ccc(NC(=O)C3CCCCC3C(=O)O)cc2)n1` (stereo not drawn), for which the “hERG current change (%, negative = inhibition) at 1uM” value is listed as 19.9%.

Regarding `Cc1ccc2cc3cc(C(=O)NCCCN4CCc5ccccc5C4)oc3nc2c1`, the “hERG current change (%, negative = inhibition) at 1uM” value is -6.48%.

Consider `CCCCCc1nnc(NC(=O)Cc2cccs2)s1`, for which the “hERG current change (%, negative = inhibition) at 1uM” value was 12.6%.

Turning to `N#C/C(=C\Nc1ccc(F)c(Cl)c1)S(=O)(=O)c1ccccn1`, the “hERG current change (%, negative = inhibition) at 1uM” value turned out to be 7.7%.

In the case of `CN1C(=O)CSc2ccc(NC(=O)Nc3ccccn3)cc21`, the “hERG current change (%, negative = inhibition) at 1uM” value came to 8.01%.

For `COc1cc(C(=O)N2CCN(c3ccccc3)CC2)c([N+](=O)[O-])cc1OC`, the “hERG current change (%, negative = inhibition) at 1uM” value was found to be 17.5%.

Regarding `CCOc1ccc2nc(N3C(=O)CNC3=S)sc2c1`, the “hERG current change (%, negative = inhibition) at 1uM” value was 10.8%.

Turning to `CC1CCCC(NC(=O)C2N(CCCN3CCCC3)C(=O)C3C(C(=O)Nc4ccc(Cl)cc4)C4C=CC32O4)C1C` (stereo not drawn), the “hERG current change (%, negative = inhibition) at 1uM” value was 0.0737%.

Turning to `CN(c1ccccc1)S(=O)(=O)c1ccc(C(=O)NCCc2ccccc2)cc1`, the “hERG current change (%, negative = inhibition) at 1uM” value turned out to be 15.6%.

For the compound `C=CCn1cc(C(=O)N2CCN(C)CC2)c(=O)c2cc(S(=O)(=O)N(CC)CC)ccc21`, the “hERG current change (%, negative = inhibition) at 1uM” value is recorded as 6.93%.

For `CC(C)c1ccc(/C=C/c2ccc(=O)n(C)n2)cc1`, the “hERG current change (%, negative = inhibition) at 1uM” value is given as -0.478%.
